Measurements reported in the antibiotic and cytotoxicity screens of Wong et al. (2023).
This is one part of the list.

Columns and labels:
HSkMC = human skeletal muscle cells; test: cytotoxicity call (relative viability < 0.9); conditions: 10 µM
HepG2 = test: cytotoxicity call (relative viability < 0.9); conditions: 10 µM
S. aureus RN4220 = test: growth inhibition call (relative growth <= 0.2); conditions: 50 µM

CO[C@@H]1CN(C)C(=O)c2ccc(NS(=O)(=O)CC(F)(F)F)cc2OC[C@H](C)N(C(=O)c2ccc3c(c2)OCO3)C[C@H]1C
cytotoxicity call (HSkMC): inactive | cytotoxicity call (HepG2): inactive | growth inhibition call (S. aureus RN4220): inactive

O=C(C[C@@H]1C[C@H]2c3cc(NC(=O)Nc4ccc(C(F)(F)F)cc4)ccc3O[C@H]2[C@@H](CO)O1)NCc1cc(F)ccc1F
cytotoxicity call (HSkMC): inactive | cytotoxicity call (HepG2): inactive | growth inhibition call (S. aureus RN4220): inactive

C[C@@H]1CCCCO[C@@H](CN(C)Cc2ccc(Cl)c(Cl)c2)[C@H](C)CN([C@H](C)CO)C(=O)c2cc(NS(=O)(=O)c3ccc(F)cc3)ccc2O1
cytotoxicity call (HSkMC): active | cytotoxicity call (HepG2): active | growth inhibition call (S. aureus RN4220): inactive

COCC#Cc1cnc2c(c1)C(=O)N([C@@H](C)CO)C[C@H](C)[C@@H](CN(C)C(=O)CCN1CCCCC1)O2
cytotoxicity call (HSkMC): inactive | cytotoxicity call (HepG2): inactive | growth inhibition call (S. aureus RN4220): inactive

CCCCc1ccc(S(=O)(=O)Nc2nccnc2-c2ccc(COc3cc(CC)nc4ccccc34)cc2)cc1
cytotoxicity call (HSkMC): inactive | cytotoxicity call (HepG2): inactive | growth inhibition call (S. aureus RN4220): inactive

C[C@H](CO)N1C[C@H](C)[C@@H](CN(C)S(=O)(=O)c2cccs2)OCCCC[C@H](C)Oc2ccc(NC(=O)c3ccccc3)cc2C1=O
cytotoxicity call (HSkMC): inactive | cytotoxicity call (HepG2): inactive | growth inhibition call (S. aureus RN4220): inactive

Cc1ccc(S(=O)(=O)N(C)C[C@H]2OCCCC[C@H](C)Oc3ccc(NC(=O)Nc4ccc(F)cc4)cc3C(=O)N([C@H](C)CO)C[C@@H]2C)cc1
cytotoxicity call (HSkMC): inactive | cytotoxicity call (HepG2): inactive | growth inhibition call (S. aureus RN4220): inactive

C[C@H]1CN([C@@H](C)CO)C(=O)c2cc(NC(=O)Cc3cn(C)c4ccccc34)ccc2O[C@H]1CN(C)Cc1ccc(Oc2ccccc2)cc1
cytotoxicity call (HSkMC): inactive | cytotoxicity call (HepG2): inactive | growth inhibition call (S. aureus RN4220): inactive

COc1cccc(C#Cc2ccc3c(c2)O[C@@H](CN(C)C(=O)CN2CCOCC2)[C@@H](C)CN([C@@H](C)CO)S3(=O)=O)c1
cytotoxicity call (HSkMC): inactive | cytotoxicity call (HepG2): inactive | growth inhibition call (S. aureus RN4220): inactive
